Reference: PubChem BioAssay AID1745853 (National Center for Advancing Translational Sciences (NCATS), 2022)
This is one part of the list. These are further read-outs of the screen, such as a control signal, another cell line or another target. No call is given for them.

Experiments:
Assay in all cases: Primary Screen for Target Class Profiling of Small Molecule Inhibitors of Methyltransferases
[1] = biological target: Glycine N-methyltransferase (Homo sapiens) (UniProt Q14749); conditions: purified enzyme, MTase-Glo SAH luminescence; measured here: GNMT inhibition; at 40 µM; stronger effect = lower value
Method in brief: (§1)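 Each enzyme was assayed with SAM and its substrate. SAH formation detected by MTase-Glo luminescence; single-point 40 uM screen[…].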

[2] = biological target: Guanidinoacetate N-methyltransferase (Homo sapiens) (UniProt Q14353); conditions: purified enzyme, MTase-Glo SAH luminescence; measured here: GAMT inhibition; at 40 µM; stronger effect = lower value
Method in brief: as §1

[3] = biological target: Histamine N-methyltransferase (Homo sapiens) (UniProt P50135); conditions: purified enzyme, MTase-Glo SAH luminescence; measured here: HNMT inhibition; at 40 µM; stronger effect = lower value
Method in brief: as §1

[4] = biological target: Nicotinamide N-methyltransferase (Homo sapiens) (UniProt P40261); conditions: purified enzyme, MTase-Glo SAH luminescence; measured here: NNMT inhibition; at 40 µM; stronger effect = lower value
Method in brief: as §1

[5] = biological target: Phenylethanolamine N-methyltransferase (Homo sapiens) (UniProt P11086); conditions: purified enzyme, MTase-Glo SAH luminescence; measured here: PNMT inhibition; at 40 µM; stronger effect = lower value
Method in brief: as §1
% is set by controls: 0 for no effect and ±100 for the full control effect.

Structure (SMILES)	activity change, negative = inhibition [1]	activity change, negative = inhibition [2]	activity change, negative = inhibition [3]	activity change, negative = inhibition [4]	activity change, negative = inhibition [5]
Cc1ncc(CCCN(C)C)cc1Nc1ncc2c(n1)-c1ccc(C(F)(F)F)cc1NC(=S)C2	-27.1%	-3.14%	-50.7%	-26.1%	-10%
O=C(c1ccccc1OC1CN(Cc2cccc(C(F)(F)F)c2)C1)N1CCOCC1	-2.81%	0.336%	2.18%	-3.66%	17.4%
CC1CCCCCCCc2cc(O)cc(O)c2C(=O)O1 (stereo not drawn)	-44.1%	-51.5%	-60.8%	-65.3%	-62%
CC1CCCC(NC(=O)C2(C)Cn3c(nc4ccccc43)C(=O)N2CCCc2ccccc2)C1C (stereo not drawn)	4.19%	0%	5.63%	-2.74%	-1.1%
N#Cc1cnc2c(Cl)cc(NCc3cn(CCN4CCCCCC4)nn3)cc2c1Nc1ccc(F)c(Cl)c1	-15.4%	-24.3%	-52.5%	-69.8%	-73.7%
Oc1ccc(/C=C/c2cc(O)cc(O)c2)cc1	-21.3%	-7.84%	-10.3%	-19.9%	-9.19%
O=C([C@@H]1C[C@H](F)CN1C(=O)c1cccs1)N1CCOCC1	-6.16%	-9.25%	-5.54%	-12.2%	-9.86%
CCCn1c(=O)c2ccc(Cl)cc2n2c(=O)n(CC(=O)c3c(C)[nH]c4ccccc34)nc12	7.04%	0%	10.9%	12.6%	9.02%
CCC(C)NC(=O)c1ccc2c(=O)n(C)c3nnc(SCC(=O)Nc4ccccc4F)n3c2c1 (stereo not drawn)	3.36%	-1.62%	2.61%	10.6%	4.62%
c1cc2c(cc1OC1CCCCC1)c1c3n2CCNC3CCC1 (stereo not drawn)	6.97%	1.83%	7.9%	8.04%	5%
COc1cc2c(cc1OC)C1Cc3ccc(OC)c(OC)c3CN1CC2 (stereo not drawn)		-3.63%		-13.3%	-2.26%
COc1ccc(OCC2CN(c3ccc(OC)cc3)C(=O)c3ccc(C)nc3O2)cc1 (stereo not drawn)	-7.54%	-5.88%	-1.6%	-7.77%	-3%
COc1ccc(CN2C(=O)c3cc4c(OC)ccc(OC)c4n3CC2(C)C(=O)NC2CCCC2)cc1 (stereo not drawn)	1.85%	0.969%	6.96%	1.04%	0.024%
CNCC(=O)N1CCC(Cc2cccc(C(N)=O)c2)C1 (stereo not drawn)	-0.346%	-0.155%	0.042%	-4.39%	-0.492%
CCC(C)NC(=O)c1ccc2c(=O)n(C(C)C)c3nn(CC(=O)c4ccc(OC)cc4)c(=O)n3c2c1 (stereo not drawn)	3.11%	0%	6.51%	2.98%	4.25%
Cc1ccc(N2C(=O)c3cc(-c4ccccc4)nn3CC2(C)C(=O)NCc2ccccc2)cc1Cl (stereo not drawn)	6.04%	1.6%	5.11%	7.87%	1.02%
COc1ccc(CN2C(=O)c3cc4oc(C)cc4n3CC2(C)C(=O)NC2CCCCCCC2)cc1 (stereo not drawn)	-7.98%	-10.1%	0.576%	-13.2%	-7.38%
